# Source: PMC12040169 (PLOS Biology, 2025)
# Some of the results follow.
# Test system: T1, C. trachomatis L2/434/Bu expressing GFP (CTL2-GFP)
# T1 construct: L2/434/Bu GFP intracellular growth in HeLa cells
# Design: species or system HeLa; C. trachomatis total inclusion area by high-content imaging, normalised to DMSO
# Settings: total inclusion area; 28.5 h, 10 µM; inhibitor
# In short: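 High-content imaging followed the bulk GFP/resorufin measurement: fixed, Hoechst-stained cells were scored for GFP inclusions and host nuclei per well. Total inclusion area and count served as growth proxies, nuclei number as the viability proxy. MIC calculation matched the bulk assay.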
row,Compound,% of control remaining
1,Cn1nnnc1SCCNC(=O)Nc1ccc(CN2CCOCC2)cc1 [CBK307084],102.19
2,Cn1ncc(N2CCC(CNC(=O)c3cc(F)ccc3Cl)C2)cc1=O (centres unmarked) [CBK307286],72.0569
3,CC(C)N(CCOc1nccnc1-c1cnn(C)c1)C(C)C [CBK107084],94.7763
4,CCn1nc(C)c(-c2cncn2CC(C)N2CCC(C)CC2)c1C (centres unmarked) [CBK281593],91.1139
5,CN(C)CCN(Cc1ccccc1)C(=O)Nc1cccnc1 [CBK145047],96.8648
6,CCOC(=O)C1CCN(S(=O)(=O)c2ccc(Cl)s2)CC1 [CBK096109],95.4711
7,O=C(Nc1ccc(S(=O)(=O)N2CCOCC2)cc1)c1cc(-c2ccccc2)nc2ccccc12 [CBK264790],97.4484
8,COc1ccc2c(c1)-c1c(ss/c1=N\c1ccc(S(N)(=O)=O)cc1)C(C)(C)N2 [CBK263339],107.804
9,COc1ccc(-c2cc3cccnc3n2CC(=O)N2CCCC2)cc1 [CBK285379],111.06
10,Cc1ccc(C#N)cc1S(=O)(=O)NC1CC(=O)c2ccccc21 (centres unmarked) [CBK304030],43.053
11,Cc1c(C(=O)Nc2ccccn2)sc2nc(-c3ccccc3)cn12 [CBK287501],115.556
12,O=C(Cc1ccncc1)NC1Cc2ccccc2C1 [CBK200351],88.8229
13,CCOC(=O)c1cccnc1-c1ccc(S(C)(=O)=O)cc1 [CBK149242],81.2929
14,O=c1n(Cc2ccccn2)c2cccnc2n1Cc1cccs1 [CBK283867],77.7094
15,CCOC(=O)CS(=O)(=O)Cc1cc(Cl)nc(Cl)c1 [CBK005544],58.0154
16,Cc1ccc(S(=O)(=O)Nc2ccc(C3(c4ccc(NS(=O)(=O)c5ccc(C)cc5)cc4)c4ccccc4C(=O)c4ccccc43)cc2)cc1 [CBK261155],83.4605
17,COc1ccc(CNC(=O)C2CCCN(c3cnc4ccccc4n3)C2)cc1 (centres unmarked) [CBK287772],93.8417
18,CS(=O)(=O)c1nnn(CC#N)n1 [CBK026075],89.2125
19,Cc1cccc(C)c1OCCOCC(O)CN1CCN(C)CC1 (centres unmarked) [CBK278206C],90.1146
20,COCCNC(=O)CN(C)c1cnc2ccccc2n1 [CBK305265],64.8947
21,Fc1ccccc1-c1cn2ccnc2c(NCCc2cccnc2)n1 [CBK037473],124.627
22,O=C1NC(c2ccccc2)Cc2onc(-c3ccccc3)c21 (centres unmarked) [CBK004409],51.4543
23,O=C(O)C1CCN(C(=O)[C@@H]2Cc3ccccc3CN2)CC1 [CBK286638],107.885
